Experimental data from the RNAGym collection of RNA variant scans (doi:10.7554/elife.90254).
The source gives no read counts; variants with many changes may rest on few reads.

B1: LINE1-full (parent)
chain: UACGUAGGUGGUUUUCCCCUGAUAGUGCUAAGGGGGCCUGGAAGUUUGGACUGGGCAGAGCUCAACACAGCGUGGCAAAGUGGCUGUGGCUAGACUGCCUCUCUGGAUUCCUCGUCACUCAGCAGGGCAUCUCUGAGAGAAAUGCC

Variants of: B1
Assay: self-cleavage, relative activity (ratio to wild type); higher = more cleavage; in vitro, sequencing; the parent is a self-cleaving ribozyme

Variant | self-cleavage
U15G G32A U73G A79G U112C | 1.04
U15G G35A A67G U87A | 0.14
U15G U20C U73C C128U | 1.45
U15G U26A G32C U112C | 1.31
U15G U39C A50G A57U | 0.46
U15G U96A U112C | 0.68
U15G U115C G125U | 1.04
C16A A22G A141G | 1.02
C16A A30U A59G A79G A107G A124G | 0
C16A U26A G70U | 0.14
C16A U52A A140G U143A | 0.82
C16A U52A U102C U134A A136G | 0.23
C16A U96C A136G | 0.18
C16U A22C U52A | 1.87
C16U A31U A124U | 1
C16U A42G U130A A140G | 2.51
C16U A43C U62C U73A | 0.09
C16U A67G A129G A136U | 1.35
C16U A67G A138G | 0.28
C16U A78G U102C U104C | 2.12
C16U C56G U96C U100C A107G | 0
C16U U20A A57G | 1.5
C16U U29C A43G U96C | 0
C16U U29C A69U U91C | 0.06

Variant | self-cleavage
C16U U85C C99U A121G | 0
C16U U85C U102C U104A U119C | 0
C16U U102C U119C | 0
C17A A22G U62C | 0.25
C17A A30G U134C | 2.51
C17A A43G A117G | 0.57
C17A A43G U102G U132A | 0.71
C17A A94G U143C | 0.13
C17A C68U U109A A129G A138G | 0.05
C17A U20C A31U G33A | 0.86
C17A U26A A69U | 0.06
C17A U39C G106U | 0.71
C17A U46C A141G | 1.72
C17G A69U A94U | 0.02
C17G U45A G72A | 0.94
C17U A24G G32A G35A U96C U134C A138U | 0.05
C17U A42G A124G | 1.25
C17U A42U U87C | 0.05
C17U A43U A94U U119A A142G | 0.31
C17U A57U A129U U130C | 0.13
C17U A65U A140G A142G | 0.2
C17U A69G U87C | 0.07
C17U A107U G137A | 0.71
C17U C37U U102C | 1.63

Variant | self-cleavage
C17U C56U A78U A136G | 0.21
C17U C84U C133A | 0.1
C17U G54C G88C C103A A117G A140G U143C | 0.06
C17U U26C C110A | 1.16
C17U U39C A65G | 0
C17U U45C U85C A117G U119A | 0.92
C17U U73C C84G C146U | 0.03
C17U U112C A140G | 0.88
C17U U130C A138G | 0.94
C18A A57U U100C U119C A142G | 0.45
C18A C19U G34A G60U A77G | 0.05
C18A U39C U62C A136G | 0.16
C18A U47C A57G | 1.41
C18A U52C U134C A142G | 1.18
C18G A50U C113U | 0.77
C18G G33U U108C | 1.79
C18G U73C U108A A117G | 1.02
C18U C51U A59G U109C | 0.08
C18U G33U A136G A142G | 1.19
C18U G36A U104A A107G U112C A138G | 1.37
C18U G55A A92G | 0.06
C18U G60A A77G A124G | 0.04
C18U U20A U91A A142G | 0
C18U U26A G41U A79G U115C | 0.78

Variant | self-cleavage
C18U U47C G83A U119A | 1.17
C18U U62C A136G C145A | 0
C18U U96C C101U | 0.17
C19A A22G U47C U100C | 0.82
C19A A24G U115C A138G U143C | 2.01
C19A A31G A129U A136G | 1.11
C19A A50C U73A U96G | 0.19
C19A A50U A77G U91C | 0.55
C19A A57U A67C A117G | 0
C19A A67U A78U A140G | 0.15
C19A A69G U87A U100C C146U | 0
C19A U20G A42G A43G C101U A140G | 1.37
C19A U39C G86A U109A | 0
C19A U47C A50G A107U U132C | 1.31
C19A U62A A117G U134C | 0.09
C19A U73C A138G | 1.19
C19G A77G A92G | 0.97
C19G C110A U119C U132C A141G | 1.69
C19G U45C U100A U130A | 1.53
C19G U47C U52C C113U | 1.06
C19U A24G U112G | 0.8
C19U A31G U119C | 0.54
C19U A31U U47C A138G | 0.95
C19U A31U U100C A121U | 0.35

Variant | self-cleavage
C19U A43C U73A G75A A121U | 1.19
C19U A57G A77G | 1.22
C19U A64G U96C | 0
C19U A64U A65G | 0
C19U A65U A77U G89C C128U | 0.03
C19U A77G A141G | 2.01
C19U A78G A140G | 1.39
C19U C38U A140G | 0.75
C19U C76U A124G | 1.61
C19U C101A U115A A136G | 1.76
C19U G60A A64G U112A | 0.07
C19U G75U A117G A142U | 1.71
C19U G83A U112C U119C | 1.02
C19U G106U A129U | 1.21
C19U G135U C145U | 0.68
C19U U20C C66U | 0.03
C19U U26A A107U | 1.49
C19U U26C A43U | 1.44
C19U U26C G58U A77G | 0.02
C19U U39A A79G | 1.11
C19U U39C U115C | 2.63
C19U U39G U100C A121U | 1.25
C19U U45C A136G | 1.06
C19U U46C A117U | 0.84

Variant | self-cleavage
C19U U46C U104A | 0.9
C19U U47A A141G | 0.37
C19U U47C A50G U108C | 1.53
C19U U47C A94U U96A U115C | 0.63
C19U U47C U130C A140G | 1.29
C19U U62C A94G | 0.09
C19U U62C A136G A142G | 0.07
C19U U62C U96C | 0.05
C19U U73C U96A U104A | 0.04
C19U U102C U119G | 1.08
C19U U104C U130C | 0.96
C19U U115C A117C | 2.71
C19U U134C U143C | 1.42
U20A A22G A43G A50G | 0
U20A A22G G40U | 1.4
U20A A22G U23C A67U A77U C99U | 0.24
U20A A24G A50U U130C | 1.09
U20A A30C A92G U102A | 0
U20A A30G C61U A79C A141G | 0.06
U20A A31G U109C U143C | 1.72
U20A A42G U87C C111A A117C | 0
U20A A42G U115A A140G | 1.58
U20A A43G U85C | 0.25
U20A A43G U130A U132C | 1.62

Variant | self-cleavage
U20A A43U A77G | 0.95
U20A A43U A77G U96A G105A | 0
U20A A43U U100C | 0.17
U20A A50G A124G | 0.92
U20A A57U A69G A121U | 0
U20A A64G U96A U100A | 0.19
U20A A65G A67G A140U | 0.1
U20A A65U A78G A79G | 0.19
U20A A65U U73A | 0.15
U20A A65U U85C | 0.09
U20A A67G A69U A107G | 0
U20A A67G A124G | 0.08
U20A A67G G75A | 0.54
U20A A67G U143C | 1.93
U20A A69G U73C | 1.53
U20A A77G G122U | 1.14
U20A A77G U119C | 2.09
U20A A77U U115A | 1.24
U20A A78G U130C | 1.35
U20A A79G A141G | 1.67
U20A A94G G114A G122U | 0.2
U20A A94G U96C | 0.19
U20A A94G U130C | 0.59
